In PubChem BioAssay AID1347165 (National Center for Advancing Translational Sciences (NCATS), 2019):
The whole screen tested about 220,000 compounds, of which about 5,700 (2.6%) were called active. Inconclusive results, whose numbers are uncertain, are shown with a selection of clear calls. Calls follow the shape of the dose curve; as a rule, active = well fitted inhibition curve with a large enough effect; inconclusive = small, poorly fitted or top-dose-only effect; inactive = no such curve, though single readings can be large or run the other way. Where the call is inconclusive, the potency comes from a doubtful curve fit.
Also: nearly all actives have a fitted effect of over 70% in size.
Potency is read from the fitted curve at half-maximal effect; tags tell the direction and shape of the fitted curve.

These compounds were tested against Lysine-specific demethylase 5B (Homo sapiens) (UniProt Q9UGL1) (assay: Primary screen for KDM5B Histone Demethylases FDH-coupled qHTS). Settings: FDH-coupled NADH fluorescence (FDH is formaldehyde dehydrogenase); series mostly up to 57.7 µM.
UniProt Q9UGL1, sequence (Q9UGL1 whole entry, looked up): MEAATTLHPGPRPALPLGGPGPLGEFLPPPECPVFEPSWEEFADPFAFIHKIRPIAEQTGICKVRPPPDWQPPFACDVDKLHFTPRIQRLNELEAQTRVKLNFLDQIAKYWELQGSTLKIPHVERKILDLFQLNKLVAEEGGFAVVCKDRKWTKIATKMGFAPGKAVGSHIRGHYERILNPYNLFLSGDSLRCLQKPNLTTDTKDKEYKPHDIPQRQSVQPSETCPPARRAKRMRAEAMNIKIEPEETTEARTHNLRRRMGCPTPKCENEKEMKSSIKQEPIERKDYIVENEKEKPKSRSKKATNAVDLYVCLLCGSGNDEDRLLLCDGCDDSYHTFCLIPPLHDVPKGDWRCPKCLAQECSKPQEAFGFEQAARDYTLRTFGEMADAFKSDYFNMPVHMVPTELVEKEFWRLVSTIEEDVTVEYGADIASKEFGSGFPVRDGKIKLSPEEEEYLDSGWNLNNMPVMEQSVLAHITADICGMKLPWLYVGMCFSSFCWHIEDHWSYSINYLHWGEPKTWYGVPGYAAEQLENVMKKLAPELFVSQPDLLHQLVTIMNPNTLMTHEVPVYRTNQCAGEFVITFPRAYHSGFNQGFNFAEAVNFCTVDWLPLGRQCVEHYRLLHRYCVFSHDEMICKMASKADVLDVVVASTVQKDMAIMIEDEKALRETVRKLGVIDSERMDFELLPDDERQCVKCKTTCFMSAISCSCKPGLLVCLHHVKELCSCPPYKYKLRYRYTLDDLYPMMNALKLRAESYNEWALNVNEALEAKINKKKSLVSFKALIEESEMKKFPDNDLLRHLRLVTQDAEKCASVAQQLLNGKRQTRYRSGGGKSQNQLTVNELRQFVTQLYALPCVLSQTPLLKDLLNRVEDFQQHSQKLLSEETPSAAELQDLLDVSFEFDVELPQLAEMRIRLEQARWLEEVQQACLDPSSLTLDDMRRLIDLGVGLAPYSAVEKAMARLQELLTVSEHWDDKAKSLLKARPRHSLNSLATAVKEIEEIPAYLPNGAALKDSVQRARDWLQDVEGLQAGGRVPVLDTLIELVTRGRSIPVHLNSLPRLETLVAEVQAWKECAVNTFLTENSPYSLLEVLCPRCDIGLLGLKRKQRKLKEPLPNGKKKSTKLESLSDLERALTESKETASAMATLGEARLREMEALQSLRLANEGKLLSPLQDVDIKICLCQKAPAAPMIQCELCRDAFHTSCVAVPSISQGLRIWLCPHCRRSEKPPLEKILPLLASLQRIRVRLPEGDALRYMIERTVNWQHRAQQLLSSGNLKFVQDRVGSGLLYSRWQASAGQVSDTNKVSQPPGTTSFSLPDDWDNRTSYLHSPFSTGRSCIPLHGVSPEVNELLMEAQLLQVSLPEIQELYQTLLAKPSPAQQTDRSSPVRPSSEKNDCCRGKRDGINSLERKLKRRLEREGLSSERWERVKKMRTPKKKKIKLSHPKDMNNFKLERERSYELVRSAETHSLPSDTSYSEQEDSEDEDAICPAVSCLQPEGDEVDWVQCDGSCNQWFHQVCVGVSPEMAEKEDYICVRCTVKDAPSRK
In short: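 Compound dilutions met 200 nM (final) KDM5BΔAP for 10 min at room temperature before substrate addition. The substrate mix held 12.5 µM H3K4me3 with cofactors 25 µM α-ketoglutarate and 50 µM Fe²⁺. NADH signal gain over 30 min defined activity.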
In the case of `COCC(=O)NC[C@H]1CCN(Cc2cccn2C)C[C@H]1N(C)C`, the Potency is reported as inconclusive: 31.6 µM [inhibitor, single point].
For `Cc1ccc(CN2CCc3oc(C)c(C(=O)NCCN4CCN(C)CC4)c3C2)cc1`, the Potency was inconclusive: 35.5 µM [inhibitor, single point].
`Cc1ccc(C)c(S(=O)(=O)NCCc2csc(-c3ccc(Cl)cc3)n2)c1` was tested, and the Potency was inconclusive: 31.6 µM [inhibitor, partial curve, poor fit].
`O=C(CCC(=O)c1ccc2c(c1)OCCO2)OCc1ccc(Cl)cc1Cl` was tested, and the Potency was “inactive”.
For `CCn1c(=O)n(-c2cccc(Cl)c2)c(=O)c2sc3ccccc3c21`, the Potency was inconclusive: 2 µM [inhibitor, partial curve, poor fit].
For `O=C(c1cnc(N2CCCCC2)c2ccccc12)N1CCN(c2ccc(Cl)cc2)CC1`, the Potency was inconclusive: 35.5 µM [inhibitor, partial curve, poor fit].
`NC(=O)CSc1cc(C(=O)NC2CC2)c2ccccc2n1` was tested, and the Potency was “inactive”.
With `Cc1cc(S(=O)(=O)N2CCN(C(=O)c3ccc(-n4cccc4)cc3)CC2)ccc1Br` the Potency was “inactive”.
For `COC(=O)c1ccccc1-c1ccc(/C=C(/C#N)c2nc3ccc(C)cc3[nH]2)o1`, the Potency was “inactive”.
`Cc1c(O)ccc(/C=N/Nc2nc(-c3cccnc3)nc3ccccc23)c1O` was tested, and the Potency was inconclusive: 39.8 µM [inhibitor, partial curve, poor fit].
For `O=S(=O)(c1cccs1)N1CC(c2noc(C3CCCN3CC3CC3)n2)C1` (stereo not drawn), the Potency was inconclusive: 17.8 µM [inhibitor, single point].
For `CCCn1c(C)nc2c(c1=O)c1nc3ccccc3nc1n2-c1ccccc1`, the Potency was inconclusive: 28.2 µM [inhibitor, single point].
For `Cc1ccc(-c2nccn3cc(C(=O)N4CCN(CC(C)C)CC4)nc23)cc1`, the Potency was inconclusive: 14.1 µM [inhibitor, partial curve].
With `O=C(C1COc2ccccc2C1)N1CCC(Cc2noc(C3CC3)n2)CC1` (stereo not drawn) the Potency was inconclusive: 3.98 µM [inhibitor, partial curve].
For `CCCCS(=O)(=O)c1oc(-c2ccc(F)cc2)nc1S(=O)(=O)c1ccccc1`, the Potency was inconclusive: 1.41 µM [inhibitor, full curve, poor fit].
For `Cc1nn(C(=O)CCCC(=O)N2CCC(CCOc3ccccc3)C2)c2ccccc12` (stereo not drawn), the Potency was “inactive”.
In the case of `Cc1cc(C(=O)COC(=O)c2nccnc2N)c(C)n1CCc1cccs1`, the Potency is reported as inconclusive: 28.2 µM [inhibitor, single point].
In the case of `Fc1ccc(-c2cc(C(F)(F)F)nc(NCc3ccccc3)n2)cc1`, the Potency is reported as inconclusive: 25.1 µM [inhibitor, partial curve, poor fit].
In the case of `C=CCNC(=O)c1cccnc1N1CC2CC(C1)[C@H]1CCCC(=O)N1C2` (stereo partly drawn), the Potency is reported as active: 25.1 µM.
`COc1cccc(CNC(=O)CSC2=Nc3ccccc3C3=NC(C)C(=O)N23)c1OC` (stereo not drawn) was tested, and the Potency was inconclusive: 22.4 µM [inhibitor, partial curve, poor fit].
`CC(=O)c1ccc(N2CCN(C(=O)C3CCN(S(=O)(=O)c4cccs4)CC3)CC2)cc1` was tested, and the Potency was inconclusive: 25.1 µM [inhibitor, single point].
With `CN(Cc1cccn1C)C(=O)c1ccc(C(F)(F)F)cc1` the Potency was “inactive”.
With `C[C@H](C(=O)N1CCOCC1)C1CC[C@@]2(C)Cc3sc(-c4ccccc4)nc3[C@@H](C)[C@@H]2[C@H]1O` (stereo partly drawn) the Potency was inconclusive: 22.4 µM [inhibitor, single point].
`O=[S+]1([O-])NCC2(CCCN(Cc3ccc(OC(F)(F)F)cc3)C2)Nc2ccccc21` (stereo not drawn) was tested, and the Potency was “inactive”.
For `Cc1ccc(CSc2ncc(Cl)c(C(=O)Oc3ccc(F)cc3)n2)cc1`, the Potency was inconclusive: 28.2 µM [inhibitor, partial curve, poor fit].
With `COc1ccc(CNC(=O)C(C)C)cc1` the Potency was “inactive”.
In the case of `Cc1ccc(-n2nc3ccc(NC(=O)Cc4ccc(Cl)cc4)cc3n2)cc1`, the Potency is reported as inconclusive: 3.55 µM [inhibitor, partial curve, poor fit].
In the case of `CCOC(=O)c1c(NC(=O)C(C)Sc2cn(CCNC(=O)c3ccccc3OC)c3ccccc23)sc2c1CCC2` (stereo not drawn), the Potency is reported as inconclusive: 1.12 µM [inhibitor, full curve, poor fit].
For `COC(=O)c1sc2cccc(F)c2c1S(=O)(=O)NCc1ccc(Cl)cc1`, the Potency was inconclusive: 39.8 µM [inhibitor, single point].
For `Cc1nccn1CCc1nc2cc(NC(=O)C3CCCCC3)ccc2n1C`, the Potency was “inactive”.
For `CC(/C=C/c1ccc2c(c1)OCO2)=N\NC(=O)C(O)c1ccccc1` (stereo not drawn), the Potency was inconclusive: 28.2 µM [inhibitor, single point].
In the case of `FC(F)(F)c1cccc(C2=NOC3(CCCN(CC4CCCC4)C3)C2)c1` (stereo not drawn), the Potency is reported as “inactive”.
In the case of `O=C(c1cccc(F)c1)N1CCN2C(=O)N(Cc3ccccc3)C(=O)[C@H]2C1`, the Potency is reported as “inactive”.
In the case of `Cc1c(C)n(C)c2ccc(C(=O)NCCc3ccc(Cl)cc3)cc12`, the Potency is reported as inconclusive: 25.1 µM [inhibitor, partial curve, poor fit].
With `COc1ccc(-c2ccnc3nc(CCc4ccccc4)nn23)cc1OC` the Potency was active: 22.4 µM.
In the case of `CCOC(=O)CSc1nnc2n(CC)c(=O)c3c(n12)-c1ccccc1CC31CCCCC1`, the Potency is reported as “inactive”.
In the case of `NS(=O)(=O)CCCC(=O)N1CCC(c2ncc[nH]2)CC1`, the Potency is reported as “inactive”.
In the case of `CN(c1ccccc1)c1ccc2c(n1)CN(Cc1ccc(F)cc1)C(=O)CO2`, the Potency is reported as active: 31.6 µM.
With `COc1cc(CN(CC2CCCO2)C(=O)COc2ccc(Cl)cc2Cl)cc(OC)c1OC` (stereo not drawn) the Potency was “inactive”.
For `CNC(=O)c1cc(-c2ccc([S+](C)(=O)[O-])cc2)cc2c1OCCN2Cc1cccnc1`, the Potency was active: 35.5 µM.
`Cc1ccc(NC(=O)c2cc(S(=O)(=O)N(C)C)ccc2N2CCCC2)cc1F` was tested, and the Potency was inconclusive: 28.2 µM [inhibitor, single point].
With `Cc1cccc(OCC(=O)NC2CCN(c3cc(C(F)(F)F)ncn3)CC2)c1` the Potency was “inactive”.
In the case of `Cn1nnnc1-c1cccc(NS(=O)(=O)c2ccc(F)cc2F)c1`, the Potency is reported as “inactive”.
With `Cc1ccc(OCC(=O)Nc2ccc3nc(SCC(N)=O)sc3c2)cc1` the Potency was “inactive”.
With `COc1ccc(Cn2c(=O)c3oc4ccccc4c3n(Cc3cccc(F)c3)c2=O)cc1` the Potency was inconclusive: 6.31 µM [inhibitor, partial curve, poor fit].
`COc1ccccc1-c1nnc([C@H]2CCN(Cc3ncc[nH]3)C2)o1` was tested, and the Potency was active: 39.8 µM.
For `CCCc1cc(C(=O)N2CCCC(Cc3ccccc3F)(C(=O)OCC)C2)n(C)n1` (stereo not drawn), the Potency was “inactive”.
`O=C(NC1CC1)c1ccc2nnc(C3CC3)n2c1` was tested, and the Potency was active: 100 µM.
With `N#Cc1cccc(-c2ccnc(N[C@H]3CO[C@H]4[C@@H]3OC[C@@H]4NC(=O)c3ccc4c(c3)OCO4)n2)c1` the Potency was inconclusive: 15.8 µM [inhibitor, partial curve, poor fit].
In the case of `O=C(CSc1nc2c([nH]c3ccccc32)c(=O)n1-c1ccc(F)cc1)NCc1ccco1`, the Potency is reported as inconclusive: 31.6 µM [inhibitor, partial curve, poor fit].
With `Cc1ccc(Nc2ccnc(N3CC4CCC(C3)N4CC(F)(F)F)n2)cc1` the Potency was inconclusive: 50.1 µM [inhibitor, partial curve].
`COc1ccc(C(=O)NC2CCCCNC2=O)cc1OC` (stereo not drawn) was tested, and the Potency was “inactive”.
`Cn1cc(CN2Cc3c(cc(N4CCOCC4)nc3-c3cccc(F)c3)C2=O)cn1` was tested, and the Potency was active: 35.5 µM.
`CN(C)C(=O)CN1CCN(C(C(=O)O)c2c(-c3ccccc3)[nH]c3ccccc23)CC1` (stereo not drawn) was tested, and the Potency was inconclusive: 22.4 µM [inhibitor, partial curve, poor fit].
In the case of `CCCC(=O)Nc1ccc(-c2csc(NC(=O)c3ccc4c(c3)nnn4CC)n2)cc1`, the Potency is reported as “inactive”.
In the case of `CCSc1ncc(Cl)c(C(=O)N(Cc2ccccc2)Cc2ccco2)n1`, the Potency is reported as inconclusive: 1.58 µM [inhibitor, partial curve, poor fit].
With `CCN(CC)C(=O)C[C@@H]1c2nc(NC(=O)c3ccc(F)cc3)sc2C[C@@H]2[C@](C)(CO)[C@H](O)CC[C@]21C` the Potency was inconclusive: 31.6 µM [inhibitor, single point].
In the case of `COc1ccc(C2C(C#N)=C(SCC(=O)c3ccccc3)NC3=C2C(=O)CC(C)(C)C3)cc1OC` (stereo not drawn), the Potency is reported as “inactive”.
For `Cc1ccc(C2C=C(c3ccc(F)cc3)Nc3nc(CCCO)nn32)cc1` (stereo not drawn), the Potency was inconclusive: 35.5 µM [inhibitor, partial curve, poor fit].
For `CCOc1ccccc1NC(=O)Cc1nc(-c2cccs2)oc1C`, the Potency was inconclusive: 25.1 µM [inhibitor, single point].
For `COc1ccccc1CCC(=O)N1CCC(N2CC3CC(C2)[C@H]2CCCC(=O)N2C3)CC1` (stereo partly drawn), the Potency was inconclusive: 7.94 µM [inhibitor, partial curve].
For `Cc1cn2nc(C(=O)N3CCC(NC(=O)CCC4CCCC4)CC3)cc2c(=O)[nH]1`, the Potency was inconclusive: 28.2 µM [inhibitor, single point].
`COc1ccc2[nH]cc(C(C(=O)O)N3CCCC3)c2c1` (stereo not drawn) was tested, and the Potency was “inactive”.
`CN(C)S(=O)(=O)c1ccc(-c2nc(C#N)c(N3CCCC3)o2)cc1` was tested, and the Potency was “inactive”.
`CCCC(=O)N1CCN(c2ccc(NC(=O)c3ccc(N4CCCC4)c([N+](=O)[O-])c3)cc2Cl)CC1` was tested, and the Potency was inconclusive: 5.01 µM [inhibitor, full curve, poor fit].
For `Cc1ccc(C2Cn3nnc(-c4noc(-c5cccc(N(C)C)c5)n4)c3CO2)cc1` (stereo not drawn), the Potency was active: 22.4 µM.
In the case of `N#Cc1ccc(C(=O)N2CCC3(CC2)CN(c2ncccn2)CC3CO)cc1` (stereo not drawn), the Potency is reported as active: 22.4 µM.
For `CCN1CCN(C(=O)c2ccc(-c3nnc4ccc(NC(=O)C5CC5)cn34)cc2)CC1`, the Potency was active: 28.2 µM.
